Assay results: a collection of fitness landscapes (doi:10.1016/j.celrep.2020.107928)
In all, about 81,000 sequences were measured (“one-hybrid fitness for binding NBS DNA”: median about -0.1, highest 2% from about 0.36 on). The list shows a part of the results.

B1: Caulobacter ParB omega fusion; a variant is named by its letters at X, in order, B8GW30 (parent)
chain: MESVVVGEPGMSEGRRGLGRGLSALLGEVDAAPAQAPGEQLGGSREAPIEILQRNPDQPRRTFREEDLEDLSNSIREKGVLQPILVRPSPDTAGEYQIVAGERAWRAAQRAGLKTVPIMVRELDDLAVLEIGIIENVQRADLNVLEEALSYKVLMEKFERTQENIAQTIGKSXSHVANXMRLLXLPDEVQSYLVSGELTAXHARAIAAAADPVALAKQIIEGGLSVRETEALARKAPNLSAGKSKGGRPPRVKDTDTQALESDLSSVLGLDVSIDHRGSTGTLTITYATLEQLDDLCNRLTRGI

Variants of: B1
Experiment: one-hybrid fitness for binding NBS DNA (the Noc-binding site; scaled: cognate 1, non-cognate 0); higher = stronger binding
Conditions: with NBS DNA site
Summary of the method: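 Bacterial one-hybrid selection in E. coli USO rpoZ- hisB- pyrF- with a HIS3 reporter carrying the site 19 bp from the promoter, screening Caulobacter ParB libraries with four specificity codons randomised (NNS). Cells grew 48 hours at 37°C on M9-minus-histidine plus 0.1 mM IPTG and 5 mM 3-AT. Plasmids before and after selection were Illumina-sequenced, three replicate libraries pooled, and variants under 10 reads dropped. Fitness is the log change in variant-to-wild-type read ratio, rescaled to cognate 1, non-cognate 0.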

one-hybrid fitness for binding NBS DNA, 0.979:
QSKR

one-hybrid fitness for binding NBS DNA, 0.236:
VWKR

one-hybrid fitness for binding NBS DNA, 0.521:
QAKA

one-hybrid fitness for binding NBS DNA, 0.276:
KRRV

one-hybrid fitness for binding NBS DNA, ≤ 0.2:
QGIR
PEVW
HPHG
CGSF
QCCN
NAKF
VPKP
KTPN
EFLV
AHSA
YWIE
SRRF
GRME
HTCM
FPTY
CRNI
NYAN
CHHC
TDSS
VVEF
RSDG
APHL
RMGQ
YCSC
IPDQ
PQSH
IMPG
MAGT
LVKV
QKMD
ATKE
NAVD
YRRH
MALP
RTQK
QAAW
VARP
RVCM
LNAV
QMEG
RVSD
VVCT
CMEC
QMMA
RPEK
GWMI
PKGY
GHGM
STLD
TQMI
ACIL
RPGH
DGPY
TPYM
PVMA
ADNT
LPTF
RCSC
EYLR
SQAI
RKDL
LMIT
ESYR
RCNL
RFEF
MWHS
LTNQ
FPTH
IDGR
VHDF
EFTT
AMTF
TVNS
LALM
QSIF
WDYG
GEIR
SGVS
GGRH
PRGT
SRIS
AAGF
TQLP
RWLN
SHIC
SKFG
QTQG
SREM
TGAW
YASS
RLHM
EVCC
PRVM
VLDC
HRTV
ERLP
HAKA
RMMP
DFPN
MNSG
SAIV
QWFS
FSYR
REFQ
QNPH
CRHC
REFC
LYLC
PEGR
NCYT
MAHG
YLTT
DRSC
VGKR
QPTY
GTPY
SGLC
HPSD
SRAC
PNDV
RDID
GHES
EQPR
KRTP
NHTG
LPRL
RFVW
KEPE
HVIE
VECA
PVQL
VLRC
KSRM
SCGP
SAEA
SWLG
QYIM
RLES
PTTW
QQAK
TDCC
QLYN
YPNE
ELSR
QGTY

one-hybrid fitness for binding NBS DNA, 0.205:
CRQT

one-hybrid fitness for binding NBS DNA, 0.417:
RTFT

one-hybrid fitness for binding NBS DNA, 0.363:
QKER

one-hybrid fitness for binding NBS DNA, 0.503:
QTKG
